The other results are listed elsewhere or left out.

T1: UNK ZnF1-3 (human, UniProt Q9C0B0 31-174)
T1 sequence: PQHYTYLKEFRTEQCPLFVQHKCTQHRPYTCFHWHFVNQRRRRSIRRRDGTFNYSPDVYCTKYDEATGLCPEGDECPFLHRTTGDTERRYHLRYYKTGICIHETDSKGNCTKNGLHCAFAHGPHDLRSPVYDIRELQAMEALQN

B1: 54476299_54477260_1302_CDS_ENSMUSG00000041303_ENSMUST00000041638|mouse|control|control (ssRNA)
RNA: GGGAGUUCUACAGUCCGACGAUCAGAAUUAUAUUCACCAACAUCCAGAAAAGCUUCAGCAACAUCAAGAUAGAGGUCACCCAUAUCUUCAGGGUUCUGUUCUACCAGUGUUGUCAGAAGAGGAUUGAGGGGCUCAAGGAUGUUCAACAGAGGAUUGAGCAUCA
B2: chr5:56168658:56168659:+_ENSG00000095015_ENST00000399503|hu_mus|FALSE|FALSE (ssRNA)
RNA: GGGAGUUCUACAGUCCGACGAUCGGAGGAUGGCUGCUGGACAGCUCGCAGGGAGGUGGGGGACUCCACGGGGCUUGAUAACUCAUGGCUGUAGAAGUCAUGGGAUCUCCACUUAGAUCUACAAAGGGGACAUAUUAAAGGCUCCAACAGAGGAUUGAGCAUCA
B3: chr1:244870462:244870463:+_ENSG00000121644_ENST00000302550|hu_mus|FALSE|FALSE (ssRNA)
RNA: GGGAGUUCUACAGUCCGACGAUCAUGAAAUUUACUCAAAGACAUGUAUCUUCACACAGAGAAUGUGACUCUCACACUAAUCACGUAUCUAAAGCUGCAGUCAGUACCUUGGAUGUUCCUAUGUUGUAUCCACUACUUACACAGCAACAGAGGAUUGAGCAUCA
B4: chr2:44571030:44571031:-_ENSG00000138078_ENST00000409411|hu_mus|FALSE|FALSE (ssRNA)
RNA: GGGAGUUCUACAGUCCGACGAUCCCUUAUCUUGGCAGCCACGUAUUUCUCAUCAGGAGCAACUCUGAUGCAAUCAAUGAAAGGCUGAUCCAAUUUAAGUUCUUCCAGGUUGAAUAAAACUUCAUAAUUAUCACUGUCAGCUUCCAACAGAGGAUUGAGCAUCA
B5: chr12:123346578:123346579:+_ENSG00000130787_ENST00000253083|hu_hu|motif|central (ssRNA)
RNA: GGGAGUUCUACAGUCCGACGAUCAGCUCUAGCUCGGAAUAUUAAAAACACUAUUUUCUGAAGAGGAAUAUUAAAAACACGGUUUUCUGAAGAGUUGAGGCUCAGGCCUACCGGGUCCUGGCUGCACCCCAAAGUUCCUUCUGCCAACAGAGGAUUGAGCAUCA
B6: chr4:48850422:48850423:+_ENSG00000109180_ENST00000264312|hu_hu|motif|central (ssRNA)
RNA: GGGAGUUCUACAGUCCGACGAUCAGCAAGUAUAAGUUUAGGGAUGGAACCAUAUUUGGGAUGACUUGAAAGUAUUCCUUUACGGAUUAAUCCUUGAGUAAUCAACAUACUUGUUGCAGCCAAAGGCACAGAUCUGAACCAGAACAACAGAGGAUUGAGCAUCA
B7: chr15:51794541:51794542:-_ENSMUSG00000022314_ENSMUST00000022927|mus_hu|FALSE|FALSE (ssRNA)
RNA: GGGAGUUCUACAGUCCGACGAUCCUGAAGUCUGAGUUUCAAAAGUGAUUUUUUUUUCCCACAAAAGUUUCAACACUUAAGCUAGAACUUUCAGUGUUAACUUUGCCCUAAAAAGUUAAGACAUUCUGAUAAUCAUAACAGUCACAACAGAGGAUUGAGCAUCA
B8: chr4:25749455:25749456:-_ENSG00000091490_ENST00000264868|hu_hu|hu_hu_hu_mus_False|68_88 (ssRNA)
RNA: GGGAGUUCUACAGUCCGACGAUCGCACUAUGACCUCUAGAAAAAUCAUUCAAGGAGAAAAAUGUAAACCAAUUUACAAUGUUAUCGCCUUCCCUGUGUGUGGAGUGUUUGUCUCAAGGCUCCUUCUAGCUGCUGGAUUUGGGACAACAGAGGAUUGAGCAUCA
B9: chr3:10168198:10168199:+_ENSG00000254999_ENST00000256463|hu_hu|motif|central (ssRNA)
RNA: GGGAGUUCUACAGUCCGACGAUCUGUCUCAAAUACAUUGACAAGUAGAUGUAUAAAAUGUUACUGAAAAGGUAAAAUGCCGGACGUCGUUUCCAACGGUUCCUCUGAACUUCUUCCCACAUACCACACCACACCCCAGAUGGCCAACAGAGGAUUGAGCAUCA
B10: chr2:70106199:70106200:+_ENSG00000087338_ENST00000282570|hu_hu|motif|central (ssRNA)
RNA: GGGAGUUCUACAGUCCGACGAUCCGAUGUGAAUAUCAGUAGGGCCAUUAAAUUAAAGCUGGCCUAAAAAGUUUUCAAAGUGCGGCUGUUUCCAACUGAUGAAAUCUUCAGUUUUCUGGAUUUUCUGGGUGACGAUUAUUUUCACAACAGAGGAUUGAGCAUCA
B11: chr2:153237265:153237266:-_ENSMUSG00000061411_ENSMUST00000109784|mus_mus|motif|central (ssRNA)
RNA: GGGAGUUCUACAGUCCGACGAUCAAAAAAAAGAAAAGAAAAGUGUCCUUGUGCCCAAAGUCUCAGAUGCUUGGAGUGCAGCGGGAAACAGCUCUUUUGGAUCCCACCUCUUUCAGAAAACAGUGUACCAACUGGUGAGGCAGGCAACAGAGGAUUGAGCAUCA
B12: chr2:179515052:179515053:+_ENSMUSG00000000305_ENSMUST00000000314|mus_hu|mus_mus_mus_hu_False|38_88 (ssRNA)
RNA: GGGAGUUCUACAGUCCGACGAUCGCUGUCCCAUGCAGUCACCGUGAAGGCCACCUGCUCGGAGGGGACCUGCAGCUCCCGGGUGGCGAAGACUGUCCCAUCCGCCCCAACUUUGAAGUCCAUGCUGUUGGUCUCAUAUUGUGUCAACAGAGGAUUGAGCAUCA
B13: chr1:163112212:163112213:-_ENSG00000143248_ENST00000313961|hu_hu|hu_hu_hu_mus_False|88_108 (ssRNA)
RNA: GGGAGUUCUACAGUCCGACGAUCUUUAUUUAUCCAGAAGAGUGAGUCACAUAGUACGCAAAGUAUUGGAUACAAUAAUCAGGAAACAAACACUAUUGGUCCAGAAUUUAAAACUUUAUGAGCGAAGUGCUGGCACAGGACUUACAACAGAGGAUUGAGCAUCA
B14: chr7:135612270:135612271:-_ENSG00000105887_ENST00000393085|hu_mus|hu_hu_hu_mus_False|58_98 (ssRNA)
RNA: GGGAGUUCUACAGUCCGACGAUCGUUUUUUUCUGAGUAAGUAUUACGUACUUCAGUGGAAAACAAAACUUAACCUUUCGCUAAUGCGUGUUGUACCAAAAGCAGACAUUUUAGCUUCAUUUAUUCAAAAAUAUUAACAUUAAGCAACAGAGGAUUGAGCAUCA

In the assay the target is T1, UNK ZnF1-3. In words: nsRBNS (natural sequence RNA bind-n-seq); RBNS binding buffer (assumed for nsRBNS): 25 mM Tris pH 7.5, 150 mM KCl, 3 mM MgCl2, 0.01% Triton X-100, 500 ug/ml BSA, 20 U/ml SUPERase-In, 4 C; UNK is unkempt and MSI1 is Musashi-1; names of the RNAs are library labels; protein concentration not given here; high values mean tight binding.
As for B1, the binding signal came out at 1.63 enrichment R.
As for B2, the binding signal stood at 1.69 enrichment R.
For B3, the binding signal amounted to 0.604 enrichment R.
To B4 belongs 1.39 enrichment R; to B5, 1.39 enrichment R; to B6, 1.3 enrichment R.
On to B7, for which the binding signal was determined as 0.496 enrichment R.
B8 had a binding signal of 1.11 enrichment R.
As for B9, the figure is 1.21 enrichment R.
As for B10, the figure is 0.809 enrichment R.
As for B11, the figure is 1.35 enrichment R; as for B12, 0.771 enrichment R; as for B13, 1.71 enrichment R.
On to B14, for which the binding signal stood at 0.623 enrichment R.

These data come from article PMC12136788.
